The source of these data is the supplement of paper PMC11876631.

± gives the standard deviation of the averaged measurements. Laboratory Escherichia coli strains with one amino-acid change in an essential protein, pooled on minimal glucose agar with carbenicillin or gentamicin at twice the control MIC (plus kanamycin and chloramphenicol for the plasmids), 48 h. Fold change of barcode share against drug-free plates; higher = less susceptible. Active = above 20 in both replicates (the paper's putatively resistant). '<' = one read or none on drug, '>' = one read or none on a drug-free plate. Shares are relative, so most strains fall below 1 when a few take over. Listed are strains with at least 15 reads on both drug-free plates, and hits; most hits rest on fewer reference reads. Replicate rank correlation about 0.5. Edits are read from barcodes. Where only a bound is given, the exact number is not on record here.

This series has as its target Escherichia coli (laboratory strain). As to the kind of experiment: barcode share on antibiotic plates over drug-free plates; higher = less susceptible. On the procedure: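 A pool of E. coli strains, each edited to carry one amino-acid change in an essential protein, was grown for 48 h on minimal glucose agar with or without antibiotic; strain barcodes were sequenced; mean of two replicates.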

Where [1] appears, read: antibiotic: carbenicillin, 2× MIC (3.1 µg/mL).
[2] abbreviates: antibiotic: gentamicin, 2× MIC (MIC 0.45 µg/mL).

B1: mukB L686Q (protein)
chain: MIERGKFRSLTLINWNGFFARTFDLDELVTTLSGGNGAGKSTTMAAFVTALIPDLTLLHFRNTTEAGATSGSRDKGLHGKLKAGVCYSMLDTINSRHQRVVVGVRLQQVAGRDRKVDIKPFAIQGLPMSVQPTQLVTETLNERQARVLPLNELKDKLEAMEGVQFKQFNSITDYHSLMFDLGIIARRLRSASDRSKFYRLIEASLYGGISSAITRSLRDYLLPENSGVRKAFQDMEAALRENRMTLEAIRVTQSDRDLFKHLISEATNYVAADYMRHANERRVHLDKALEFRRELHTSRQQLAAEQYKHVDMARELAEHNGAEGDLEADYQAASDHLNLVQTALRQQEKIERYEADLDELQIRLEEQNEVVAEAIERQQENEARAEAAELEVDELKSQLADYQQALDVQQTRAIQYNQAIAALNRAKELCHLPDLTADCAAEWLETFQAKELEATEKMLSLEQKMSMAQTAHSQFEQAYQLVVAINGPLARNEAWDVARELLREGVDQRHLAEQVQPLRMRLSELEQRLREQQEAERLLADFCKRQGKNFDIDELEALHQELEARIASLSDSVSNAREERMALRQEQEQLQSRIQSLMQRAPVWLAAQNSLNQLSEQCGEEFTSSQDVTEYLQQLLEREREAIVERDEVGARKNAVDEEIERLSQPGGSEDQRLNALAERFGGVLQSEIYDDVSLEDAPYFSALYGPSRHAIVVPDLSQVTEHLEGLTDCPEDLYLIEGDPQSFDDSVFSVDELEKAVVVKIADRQWRYSRFPEVPLFGRAARESRIESLHAEREVLSERFATLSFDVQKTQRLHQAFSRFIGSHLAVAFESDPEAEIRQLNSRRVELERALSNHENDNQQQRIQFEQAKEGVTALNRILPRLNLLADDSLADRVDEIRERLDEAQEAARFVQQFGNQLAKLEPIVSVLQSDPEQFEQLKEDYAYSQQMQRDARQQAFALTEVVQRRAHFSYSDSAEMLSGNSDLNEKLRERLEQAEAERTRAREALRGHAAQLSQYNQVLASLKSSYDTKKELLNDLQRELQDIGVRADSGAEERARIRRDELHAQLSNNRSRRNQLEKALTFCEAEMDNLTRKLRKLERDYFEMREQVVTAKAGWCAVMRMVKDNGVERRLHRRELAYLSADDLRSMSDKALGALRLAVADNEHLRDVLRMSEDPKRPERKIQFFVAVYQHLRERIRQDIIRTDDPVEAIEQMEIELSRLTEELTSREQKLAISSRSVANIIRKTIQREQNRIRMLNQGLQNVSFGQVNSVRLNVNVRETHAMLLDVLSEQHEQHQDLFNSNRLTFSEALAKLYQRLNPQIDMGQRTPQTIGEELLDYRNYLEMEVEVNRGSDGWLRAESGALSTGEAIGTGMSILVMVVQSWEDESRRLRGKDISPCRLLFLDEAARLDARSIATLFELCERLQMQLIIAAPENISPEKGTTYKLVRKVFQNTEHVHVVGLRGFAPQLPETLPGTDEAPSQAS
With B1, the “fold change of barcode share” value was determined as 0.379 ± 0.073 under setting [1] and 0.0269 ± 0.024 under setting [2].

B2: mukB V713A (protein)
chain: MIERGKFRSLTLINWNGFFARTFDLDELVTTLSGGNGAGKSTTMAAFVTALIPDLTLLHFRNTTEAGATSGSRDKGLHGKLKAGVCYSMLDTINSRHQRVVVGVRLQQVAGRDRKVDIKPFAIQGLPMSVQPTQLVTETLNERQARVLPLNELKDKLEAMEGVQFKQFNSITDYHSLMFDLGIIARRLRSASDRSKFYRLIEASLYGGISSAITRSLRDYLLPENSGVRKAFQDMEAALRENRMTLEAIRVTQSDRDLFKHLISEATNYVAADYMRHANERRVHLDKALEFRRELHTSRQQLAAEQYKHVDMARELAEHNGAEGDLEADYQAASDHLNLVQTALRQQEKIERYEADLDELQIRLEEQNEVVAEAIERQQENEARAEAAELEVDELKSQLADYQQALDVQQTRAIQYNQAIAALNRAKELCHLPDLTADCAAEWLETFQAKELEATEKMLSLEQKMSMAQTAHSQFEQAYQLVVAINGPLARNEAWDVARELLREGVDQRHLAEQVQPLRMRLSELEQRLREQQEAERLLADFCKRQGKNFDIDELEALHQELEARIASLSDSVSNAREERMALRQEQEQLQSRIQSLMQRAPVWLAAQNSLNQLSEQCGEEFTSSQDVTEYLQQLLEREREAIVERDEVGARKNAVDEEIERLSQPGGSEDQRLNALAERFGGVLLSEIYDDVSLEDAPYFSALYGPSRHAIAVPDLSQVTEHLEGLTDCPEDLYLIEGDPQSFDDSVFSVDELEKAVVVKIADRQWRYSRFPEVPLFGRAARESRIESLHAEREVLSERFATLSFDVQKTQRLHQAFSRFIGSHLAVAFESDPEAEIRQLNSRRVELERALSNHENDNQQQRIQFEQAKEGVTALNRILPRLNLLADDSLADRVDEIRERLDEAQEAARFVQQFGNQLAKLEPIVSVLQSDPEQFEQLKEDYAYSQQMQRDARQQAFALTEVVQRRAHFSYSDSAEMLSGNSDLNEKLRERLEQAEAERTRAREALRGHAAQLSQYNQVLASLKSSYDTKKELLNDLQRELQDIGVRADSGAEERARIRRDELHAQLSNNRSRRNQLEKALTFCEAEMDNLTRKLRKLERDYFEMREQVVTAKAGWCAVMRMVKDNGVERRLHRRELAYLSADDLRSMSDKALGALRLAVADNEHLRDVLRMSEDPKRPERKIQFFVAVYQHLRERIRQDIIRTDDPVEAIEQMEIELSRLTEELTSREQKLAISSRSVANIIRKTIQREQNRIRMLNQGLQNVSFGQVNSVRLNVNVRETHAMLLDVLSEQHEQHQDLFNSNRLTFSEALAKLYQRLNPQIDMGQRTPQTIGEELLDYRNYLEMEVEVNRGSDGWLRAESGALSTGEAIGTGMSILVMVVQSWEDESRRLRGKDISPCRLLFLDEAARLDARSIATLFELCERLQMQLIIAAPENISPEKGTTYKLVRKVFQNTEHVHVVGLRGFAPQLPETLPGTDEAPSQAS
B2: the “fold change of barcode share” value under setting [1] came to 0.308 ± 0.18 and the “fold change of barcode share” value under setting [2] is below 0.0047.

B3: msbA V29P (protein)
chain: MHNDKDLSTWQTFRRLWPTIAPFKAGLIPAGVALILNAASDTFMLSLLKPLLDDGFGKTDRSVLVWMPLVVIGLMILRGITSYVSSYCISWVSGKVVMTMRRRLFGHMMGMPVSFFDKQSTGTLLSRITYDSEQVASSSSGALITVVREGASIIGLFIMMFYYSWQLSIILIVLAPIVSIAIRVVSKRFRNISKNMQNTMGQVTTSAEQMLKGHKEVLIFGGQEVETKRFDKVSNRMRLQGMKMVSASSISDPIIQLIASLALAFVLYAASFPSVMDSLTAGTITVVFSSMIALMRPLKSLTNVNAQFQRGMAACQTLFTILDSEQEKDEGKRVIERATGDVEFRNVTFTYPGRDVPALRNINLKIPAGKTVALVGRSGSGKSTIASLITRFYDIDEGEILMDGHDLREYTLASLRNQVALVSQNVHLFNDTVANNIAYARTEQYSREQIEEAARMAYAMDFINKMDNGLDTVIGENGVLLSGGQRQRIAIARALLRDSPILILDEATSALDTESERAIQAALDELQKNRTSLVIAHRLSTIEKADEIVVVEDGVIVERGTHNDLLEHRGVYAQLHKMQFGQ
As to B3, the “fold change of barcode share” value under setting [1] worked out at 0.515 ± 0.032.

B4: msbA V550A (protein)
chain: MHNDKDLSTWQTFRRLWPTIAPFKAGLIVAGVALILNAASDTFMLSLLKPLLDDGFGKTDRSVLVWMPLVVIGLMILRGITSYVSSYCISWVSGKVVMTMRRRLFGHMMGMPVSFFDKQSTGTLLSRITYDSEQVASSSSGALITVVREGASIIGLFIMMFYYSWQLSIILIVLAPIVSIAIRVVSKRFRNISKNMQNTMGQVTTSAEQMLKGHKEVLIFGGQEVETKRFDKVSNRMRLQGMKMVSASSISDPIIQLIASLALAFVLYAASFPSVMDSLTAGTITVVFSSMIALMRPLKSLTNVNAQFQRGMAACQTLFTILDSEQEKDEGKRVIERATGDVEFRNVTFTYPGRDVPALRNINLKIPAGKTVALVGRSGSGKSTIASLITRFYDIDEGEILMDGHDLREYTLASLRNQVALVSQNVHLFNDTVANNIAYARTEQYSREQIEEAARMAYAMDFINKMDNGLDTVIGENGVLLSGGQRQRIAIARALLRDSPILILDEATSALDTESERAIQAALDELQKNRTSLVIAHRLSTIEKADEIVAVEDGVIVERGTHNDLLEHRGVYAQLHKMQFGQ
For the protein B4, the “fold change of barcode share” value is, setting by setting: under setting [1], 0.391 ± 0.32; under setting [2], 0.0109 ± 0.01.
